According to article PMC10668032:
The other results are listed elsewhere or left out. At the low end of the ranking the order means little.

target: SIX1 homeodomain (reference allele) (UniProt Q15475); assay: universal protein binding microarray; conditions: Universal all-10-mer PBM (8x60K, AMADID 030236), 300 nM GST-tagged protein, Alexa Fluor 488 anti-GST; buffer, salt, pH and temperature not stated; high values mean tight binding; most listed sequences are background and not binding sites; double strand, one strand shown

Row | Sequence | binding signal [E-score]
1 | GTGTCACA | 0.375
2 | CTATTTCC | -0.0841
3 | AAGACACA | -0.246
4 | GGGTGCCA | 0.0936
5 | CGCCCTTA | -0.27
6 | ATCATATA | 0.271
7 | CAAATCGG | 0.053
8 | AATGAACT | -0.242
9 | CGGCCCCC | -0.258
10 | CGTGCATC | 0.0528
11 | CTTAGGAA | 0.00927
12 | AGGCTCAC | 0.00999
13 | GAAGTCTC | -0.174
14 | GGTAGTGA | 0.0515
15 | ATGACGGC | -0.095
16 | ACCGGTGG | -0.0848
17 | AGAATTGC | -0.186
18 | ATCCGACG | 0.241
19 | GATAGGGC | 0.285
20 | CGGCTATA | 0.00564
21 | CCCGCAAA | -0.115
22 | CCATATGG | 0.131
23 | ATGTGCGA | -0.1
24 | GCCTCCGC | -0.0793
25 | TATCGATA | 0.342

Row | Sequence | binding signal [E-score]
26 | AGGCAACT | -0.155
27 | GGAAGGAA | -0.088
28 | ACCAGGAT | 0.345
29 | AGCTAGCA | -0.0165
30 | ACAGTCCG | -0.114
31 | CTAGTACA | 0.0582
32 | GACACGGC | 0.0812
33 | TATTTTGA | -0.141
34 | CACTCACC | -0.031
35 | AGCAAGGG | 0.0682
36 | CGGGTTCA | 0.149
37 | ATCGGACA | 0.237
38 | GACGTAAA | -0.162
39 | ATCCTACA | 0.288
40 | ACGGAACC | -0.192
41 | AATGGATG | -0.134
42 | AAGCTGTA | 0.0658
43 | CGCTCTGA | -0.122
44 | GAGACATA | 0.132
45 | CATCACAA | 0.0587
46 | CGCATCGA | 0.208
47 | CTCAGACC | -0.157
48 | AGGTGTGA | 0.204
49 | TACAGGGA | 0.00799
50 | CAACGTCA | -0.24

Row | Sequence | binding signal [E-score]
51 | ATCGTGGC | 0.076
52 | GATTTACC | -0.0612
53 | ATGTGAGC | -0.00751
54 | CTACACGC | 0.0747
55 | CGTAGTCC | -0.204
56 | ATCTATCG | 0.23
57 | GGATCCAA | 0.41
58 | ACGCATCT | 0.169
59 | AGCCACCG | -0.0209
60 | CTATCACA | 0.311
61 | GGCCGCTA | -0.127
62 | ACATCAGG | -0.113
63 | ATCAAACC | 0.261
64 | AATACAAG | 0.0905
65 | CACTAGAA | -0.128
66 | GTCCTTGA | -0.128
67 | CAGCTAGA | -0.124
68 | ATGAGAAG | 0.176
69 | AAGCTTCA | -0.252
70 | GAAGGCCA | -0.274
71 | CGCATCTC | 0.154
72 | GGTGAAAA | -0.151
73 | TCCTTCCA | -0.00863
74 | CACCGAAA | 0.0578
75 | CCCTGAGG | -0.084

Row | Sequence | binding signal [E-score]
76 | TCACGTCA | 0.0163
77 | GTCCTCAA | -0.332
78 | ACAAGATC | 0.207
79 | CTCCAACC | -0.0768
80 | AGGGCAAC | -0.121
81 | CAGCAATG | -0.226
82 | ATCCTATG | 0.152
83 | GAGACGGC | 0.0871
84 | CAGTTATA | 0.0531
85 | AGGCACAG | -0.152
86 | CCATCCTC | 0.053
87 | GTGTGGCA | -0.115
88 | ATAAAGCA | -0.063
89 | CTGTTTAC | -0.263
90 | AGACGCGG | 0.0324
91 | TATTAGCA | 0.145
92 | AGTGTTAG | 0.0653
93 | AAAATAAG | -0.0846
94 | AGTGCTTA | -0.261
95 | AAAAACTT | -0.341
96 | ATACGGGC | 0.278
97 | ATCCCCGG | 0.307
98 | ATCGGAAT | 0.172
99 | ATGTTTCA | -0.0604
100 | AATCATTC | -0.0896

Row | Sequence | binding signal [E-score]
101 | AGCTGTGA | 0.00675
102 | AGTATGGC | -0.0287
103 | CTCGACTC | -0.0806
104 | ATAGGATA | 0.415
105 | AAAACTAG | -0.0426
106 | ACCATAGG | 0.0361
107 | TTCCGAAA | -0.162
108 | CACGTGAG | -0.163
109 | CTGCCGGA | -0.0267
110 | ATTTCAAA | 0.000155
111 | TACTTCCA | 0.0222
112 | AAATGTTC | -0.17
113 | ACTCTAGC | -0.027
114 | CTTACTAC | -0.0528
115 | ATGTTTAC | -0.0948
116 | ATCCATAA | 0.254
117 | TGGTTGAA | -0.147
118 | CTGTCCTC | 0.0352
119 | CTTGGTAA | -0.0803
120 | AACCTCGC | -0.0568
121 | GGGTATTA | 0.393
122 | CGGGTGCA | 0.013
123 | ATTTCGGA | -0.0252
124 | ACTCCAAA | -0.199
125 | GTCCGACA | 0.00526

Row | Sequence | binding signal [E-score]
126 | GACAGACC | -0.181
127 | CGAATGAC | 0.0709
128 | CTCGCTCC | 0.011
129 | ATCCCGAT | 0.378
130 | ATGTATCA | 0.448
131 | ATTAACGA | 0.0502
132 | CAGTAATG | -0.00453
133 | TCCCCACA | -0.129
134 | GTCTCTAA | -0.128
135 | ACTTTATG | -0.0542
136 | AATTCCGG | -0.0499
137 | CTCTCTGA | 0.0106
138 | ACCGGGCG | 0.00777
139 | TGGCATAA | 0.177
140 | CATTATAG | -0.0872
141 | CGCGGAGC | -0.176
142 | CATTCTCG | -0.176
143 | CCAATCCG | 0.224
144 | AGGCATGC | -0.235
145 | GGTGAAAC | 0.0962
146 | CCCCTAAG | 0.0172
147 | CCCAGAAG | -0.0619
148 | GCGATCAC | 0.354
149 | GAATGCCC | 0.00274
150 | ACCCCAGA | 0.189

Row | Sequence | binding signal [E-score]
151 | TCGATCCA | 0.152
152 | ATGACTAA | -0.112
153 | AGTAAAAT | -0.039
154 | GTACACTA | 0.114
155 | ACCTTCAG | -0.0385
156 | TCCACGGA | 0.0425
157 | CAACCTGA | -0.0449
158 | GTGGAAGA | -0.0122
159 | ACATTATC | 0.165
160 | GCGGCCCC | -0.155
161 | GCTGGGCA | -0.0906
162 | ATTTTGGG | -0.0913
163 | TAGGCACA | -0.109
164 | ATACTGAC | 0.199
165 | AATTCCGC | -0.0557
166 | ACCGCCTC | -0.0646
167 | GAGCAGGC | -0.156
168 | GACTCACA | -0.289
169 | GCCTCCCC | -0.148
170 | AACGTACA | -0.147
171 | CAATGCTG | -0.073
172 | CCCTTGTC | -0.0401
173 | GGCGCCCC | -0.217
174 | AGGTTTAT | 0.199
175 | AAGGCTCT | -0.0956

Row | Sequence | binding signal [E-score]
176 | ATTACTTG | -0.0983
177 | AGTGAATG | 0.0439
178 | AGAGTCCC | -0.182
179 | CATAAGAG | -0.0308
180 | AATGAAAG | -0.27
181 | CTCCGGCC | -0.298
182 | ATACGGCA | 0.339
183 | GTTCAAGA | -0.136
184 | CCTAACTA | -0.0382
185 | ATCTCATC | 0.311
186 | GTCCAGAC | -0.205
187 | ATACTAAA | -0.031
188 | AGTTCCTG | -0.362
189 | ATATATGC | 0.289
190 | CTCTTACC | -0.0714
191 | ACGCAGAT | 0.214
192 | GACCCGGA | 0.151
193 | ACTACGCT | -0.254
194 | GGGCCTAA | -0.281
195 | CCAGAGTC | -0.205
196 | GAATACAC | 0.176
197 | TAATAACA | -0.107
198 | CTTGCAAC | -0.187
199 | CGGTAGGA | 0.00923
200 | AGGATGAT | 0.305

Row | Sequence | binding signal [E-score]
201 | AGTTGATC | 0.23
202 | AGTTAACA | -0.0481
203 | CGCCTATC | 0.218
204 | CGTAGGCA | -0.0679
205 | CCGCGGCG | -0.0103
206 | CAGGTGCC | -0.0136
207 | AGGGGAGA | 0.0472
208 | AGCTTAGA | 0.131
209 | CAACGATA | 0.326
210 | AACGGAGT | -0.122
211 | AAGCTTTC | -0.277
212 | AGTTTTAC | 0.0471
213 | TATATTCA | 0.166
214 | CGTGATTC | -0.028
215 | AGTTGCAC | -0.06
216 | GGAATCCA | 0.0626
217 | AGTCTCGC | 0.0573
218 | CATGCGTC | -0.0298
219 | AGATCTTC | 0.169
